This is one part of the list. The list includes weakly bound sequences.
Molecular target: T1, MBP-FoxP3dN (UniProt Q99JB6)
T1 sequence: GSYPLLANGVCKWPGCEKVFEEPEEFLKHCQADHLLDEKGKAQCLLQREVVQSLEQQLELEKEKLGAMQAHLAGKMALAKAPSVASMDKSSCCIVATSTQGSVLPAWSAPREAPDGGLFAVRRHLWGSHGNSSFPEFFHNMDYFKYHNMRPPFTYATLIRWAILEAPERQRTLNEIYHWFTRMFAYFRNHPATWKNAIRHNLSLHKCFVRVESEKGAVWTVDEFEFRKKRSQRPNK
Test: PD-seq (MBP pull-down with sequencing)
Details: 20 mM Tris-HCl pH 7.5, 100 mM NaCl, 1.5 mM MgCl2, 0.4 uM protein, 0.1 uM dsDNA library, 30 min, room temperature, amylose pull-down; high values mean tight binding; double strand, one strand shown

| Sequence | binding signal (RPM ratio (pull-down/input)) |
| --- | --- |
| GATGATTGTTCTCCCAGCTGATGAATTCGACACCTCGAGTAAACAAATTTTCCTAATCTTTCTGTTCAAGCGCCATCTAC | 0.881 |
| GATGATTGTTCTCCCAGCTGATGAATTGGCGGCGTCGAGTAAACAAATTTTCCTAATCTTTCTGTTCAAGCGCCATCTAC | 0.539 |
| GATGATTGTTCTCCCAGCTGATGAATTATTACGTTCGAGTAAACAAATTTTCCTAATCTTTCTGTTCAAGCGCCATCTAC | 0.524 |
| GATGATTGTTCTCCCAGCTGATGAATTCCGGGTTTCGAGTAAACAAATTTTCCTAATCTTTCTGTTCAAGCGCCATCTAC | 0.579 |
| GATGATTGTTCTCCCAGCTGATGAATTCCGAAGCTCGAGTAAACAAATTTTCCTAATCTTTCTGTTCAAGCGCCATCTAC | 0.243 |
| GATGATTGTTCTCCCAGCTGATGAATTGTGTGTATCGAGTAAACAAATTTTCCTAATCTTTCTGTTCAAGCGCCATCTAC | 6.39 |
| GATGATTGTTCTCCCAGCTGATGAATTAGTAAAATCGAGTAAACAAATTTTCCTAATCTTTCTGTTCAAGCGCCATCTAC | 0.249 |
| GATGATTGTTCTCCCAGCTGATGAATTCGCTATTTCGAGTAAACAAATTTTCCTAATCTTTCTGTTCAAGCGCCATCTAC | 1.67 |
| GATGATTGTTCTCCCAGCTGATGAATTGCGAATCTCGAGTAAACAAATTTTCCTAATCTTTCTGTTCAAGCGCCATCTAC | 2.16 |
| GATGATTGTTCTCCCAGCTGATGAATTTTAACCGTCGAGTAAACAAATTTTCCTAATCTTTCTGTTCAAGCGCCATCTAC | 0.248 |
| GATGATTGTTCTCCCAGCTGATGAATTAGAGAATTCGAGTAAACAAATTTTCCTAATCTTTCTGTTCAAGCGCCATCTAC | 0.695 |
| GATGATTGTTCTCCCAGCTGATGAATTTGGATTCTCGAGTAAACAAATTTTCCTAATCTTTCTGTTCAAGCGCCATCTAC | 0.785 |
| GATGATTGTTCTCCCAGCTGATGAATTACCCAACTCGAGTAAACAAATTTTCCTAATCTTTCTGTTCAAGCGCCATCTAC | 0.253 |
| GATGATTGTTCTCCCAGCTGATGAATTTTGCAACTCGAGTAAACAAATTTTCCTAATCTTTCTGTTCAAGCGCCATCTAC | 6.24 |
| GATGATTGTTCTCCCAGCTGATGAATTCTAGGCCTCGAGTAAACAAATTTTCCTAATCTTTCTGTTCAAGCGCCATCTAC | 0.39 |
| GATGATTGTTCTCCCAGCTGATGAATTACGGACCTCGAGTAAACAAATTTTCCTAATCTTTCTGTTCAAGCGCCATCTAC | 0.269 |
| GATGATTGTTCTCCCAGCTGATGAATTAATTCAGTCGAGTAAACAAATTTTCCTAATCTTTCTGTTCAAGCGCCATCTAC | 0.216 |
| GATGATTGTTCTCCCAGCTGATGAATTTCCGGAATCGAGTAAACAAATTTTCCTAATCTTTCTGTTCAAGCGCCATCTAC | 0.165 |
